# The other results are listed elsewhere or left out.
# T1: UNK ZnF1-3 (human, UniProt Q9C0B0 31-174)
# T1 sequence: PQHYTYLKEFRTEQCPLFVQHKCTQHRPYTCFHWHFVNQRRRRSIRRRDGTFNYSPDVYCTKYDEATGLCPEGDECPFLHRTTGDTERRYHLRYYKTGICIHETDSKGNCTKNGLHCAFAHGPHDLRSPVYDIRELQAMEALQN
# B1: chr7:90019433:90019434:+_ENSMUSG00000057706_ENSMUST00000082237|mus_hu|mus_mus_mus_hu_True|88_98 (ssRNA)
# RNA: GGGAGUUCUACAGUCCGACGAUCAAAUAAUACAGUGUCUUUGCCAUAAGGCCAUACCUAAAAUAAAAAGAUUUAACCCAGCUACAAAAAAGUUCACUGAACUUAAAUUAAAAUACUUGUAAACAUCUUUGCAAUAUGAAAUAUCAACAGAGGAUUGAGCAUCA
# B2: chr1:154525626:154525627:-_ENSG00000160714_ENST00000292211|hu_mus|motif|central (ssRNA)
# RNA: GGGAGUUCUACAGUCCGACGAUCAUCAUCUUCAGACUUCUUGCCCUCGGCUGGCUCUUCCUCUUUCAUUUCAUAGUGAUCGGGGUCUUCUGUAUCCUCAGGCAUCUCUUCAUCUUCAUCUUCUGAAGACACUUCUUCCUGCGUCAACAGAGGAUUGAGCAUCA
# B3: chr6:134305517:134305518:+_ENSG00000028839_ENST00000367871|hu_mus|motif|central (ssRNA)
# RNA: GGGAGUUCUACAGUCCGACGAUCGUUACACACUGCCAAAACAUUCACCACCUUAAAAUCUGUGAAGAUGACCUGAAAACCGGGUUUCUGCAGACUACGGGCUAAACGUCUGGCACCAAAUUUAGCUUCUUCUUCACUUGUUGCCAACAGAGGAUUGAGCAUCA
# B4: 93746689_93746809_331_CDS_ENSMUSG00000054079_ENSMUST00000066888|mouse|control|control (ssRNA)
# RNA: GGGAGUUCUACAGUCCGACGAUCCUCGACAUCGCCGAAGACGAGCUGCUCCAGGCAACGCUCGGCGGCCGGCUUAUCGUCCUCUAGCGUCAGGCGGUUCCGCUGCCGGAGCCGGCUCUCCUCCUCCUCUGCCGCCGCCGCCGCCAACAGAGGAUUGAGCAUCA
# B5: chr14:92597410:92597411:+_ENSG00000165934_ENST00000298875|hu_hu|motif|central (ssRNA)
# RNA: GGGAGUUCUACAGUCCGACGAUCGGAAUCAAUAAUAUCCAUAGAAAAGUGCUCAUCCCAGCCACAGUCCAAUAAAAAUCGGAACUCAUCAACUUGGAGAAGAUAGCAAAGGGCAGAUUCUUCUUGGACCCCAGAAAGGGUAGUCAACAGAGGAUUGAGCAUCA
# B6: chr1:95392461:95392462:-_ENSG00000117519_ENST00000538964|hu_mus|FALSE|FALSE (ssRNA)
# RNA: GGGAGUUCUACAGUCCGACGAUCUUCGGCGGAGAGCCCGUAGGAAGGGCCCUUGUUGAAGUGGGUCAUGGCUGUUUGGACGACUGGAAGAGUUCUAGCGGUCAGUCACCCUCGGUGUCCCUGCUCUUAGCCCCAGCGGCGGCCCAACAGAGGAUUGAGCAUCA
# Molecular target: T1, UNK ZnF1-3
# Test: nsRBNS (natural sequence RNA bind-n-seq); RBNS binding buffer (assumed for nsRBNS): 25 mM Tris pH 7.5, 150 mM KCl, 3 mM MgCl2, 0.01% Triton X-100, 500 ug/ml BSA, 20 U/ml SUPERase-In, 4 C; UNK is unkempt and MSI1 is Musashi-1; names of the RNAs are library labels; protein concentration not given here; high values mean tight binding
row,Binder,binding signal [enrichment R]
1,B1,1.41
2,B2,0.42
3,B3,0.817
4,B4,0.403
5,B5,1.46
6,B6,0.836

# — publication PMC12136788
